SMILES strings stand for the structures. The campaign covered roughly 310,000 compounds. About 2,200 (0.71%) showed an effect of 50% or more. The effect is printed as a negative number. Some of the results follow.

This note sets out measurements from PMC4336329 (PLoS ONE, 2015).

For this test, the target named is human ether-à-go-go-related gene (hERG) potassium channel (human, UniProt Q12809). Briefly: primary screen, population patch clamp on CHO cells stably expressing hERG.
Sequence of human ether-à-go-go-related gene (hERG) potassium channel (Q12809 whole entry, looked up): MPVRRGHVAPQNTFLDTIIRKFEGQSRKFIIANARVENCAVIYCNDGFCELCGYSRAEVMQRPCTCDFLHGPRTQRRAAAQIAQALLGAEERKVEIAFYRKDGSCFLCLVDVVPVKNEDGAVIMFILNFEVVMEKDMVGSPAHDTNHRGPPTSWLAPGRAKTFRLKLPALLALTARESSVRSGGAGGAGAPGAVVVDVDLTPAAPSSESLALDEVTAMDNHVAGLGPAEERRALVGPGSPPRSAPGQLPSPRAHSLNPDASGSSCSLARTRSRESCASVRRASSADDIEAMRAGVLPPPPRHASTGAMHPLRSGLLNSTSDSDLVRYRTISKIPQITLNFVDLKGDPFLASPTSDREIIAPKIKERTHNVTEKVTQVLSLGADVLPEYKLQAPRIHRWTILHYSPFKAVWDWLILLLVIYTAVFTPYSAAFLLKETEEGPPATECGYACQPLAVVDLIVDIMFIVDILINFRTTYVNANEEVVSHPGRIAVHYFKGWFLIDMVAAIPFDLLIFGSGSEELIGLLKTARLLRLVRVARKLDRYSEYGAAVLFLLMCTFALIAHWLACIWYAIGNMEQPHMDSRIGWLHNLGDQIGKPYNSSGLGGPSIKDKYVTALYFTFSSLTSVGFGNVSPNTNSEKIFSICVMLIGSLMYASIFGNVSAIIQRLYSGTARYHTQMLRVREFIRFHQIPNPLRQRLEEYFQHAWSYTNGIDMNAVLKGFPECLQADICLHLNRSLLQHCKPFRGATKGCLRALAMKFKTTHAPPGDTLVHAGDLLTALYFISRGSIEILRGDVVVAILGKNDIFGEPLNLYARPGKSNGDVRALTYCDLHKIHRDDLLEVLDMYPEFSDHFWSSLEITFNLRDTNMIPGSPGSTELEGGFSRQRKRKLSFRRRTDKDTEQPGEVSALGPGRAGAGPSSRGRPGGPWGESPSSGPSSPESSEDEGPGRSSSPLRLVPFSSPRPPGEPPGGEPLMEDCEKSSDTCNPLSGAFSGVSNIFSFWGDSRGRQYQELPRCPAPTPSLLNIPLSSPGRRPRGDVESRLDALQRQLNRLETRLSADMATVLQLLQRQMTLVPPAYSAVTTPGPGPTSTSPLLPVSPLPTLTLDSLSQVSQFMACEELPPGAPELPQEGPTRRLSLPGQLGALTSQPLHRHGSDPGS
With `CCC(=O)Nc1nc(C)c(C(=O)N2CCCCC2)s1`, the “hERG current change (%, negative = inhibition) at 1uM” value came to 12.8%. Under `O=C(Nc1ccccc1)Nn1cnnc1` stands 12.2%; under `O=C(COc1ccc(Cl)cc1Cl)Nc1ccc2nc3n(c(=O)c2c1)CCCC3`, 3.53%; under `Cn1ccnc1SCc1cn2ccccc2n1`, 13.4%. Under `COc1cc(C(=O)NCCSc2ccc(F)cc2)cc(OC)c1OC` stands 8.13%; under `Cc1cc(OCC(=O)N2CCC(O)(c3ccc(Cl)cc3)CC2)c2c(C)cc(=O)oc2c1`, 24.3%. Under `CC(C)n1nnnc1-c1cccc(Cl)c1` stands 0.0536%; under `Cc1ccc(S(=O)(=O)NCCC(=O)NC2CCCCC2C)cc1` (stereo not drawn), 10.9%. For `CCCCn1c(=O)c(C(=O)Nc2ccccc2S(N)(=O)=O)c(O)c2ccccc21`, the “hERG current change (%, negative = inhibition) at 1uM” value is given as 1.64%. In the case of `COc1ccccc1NC(=O)CN(Cc1ccco1)C(=O)c1cccs1` it was 6.65%; in that of `COc1ccc(C(=O)CN2C(=O)NC3(CCCc4ccccc43)C2=O)cc1OC` (stereo not drawn), 7.65%. In the case of `O=C(CSCc1ccccc1)Nc1cccc(C(=O)Nc2ccc(C(=O)O)cc2)c1` it was 6.74%. Under `CCN(CCCNC(=O)COc1cc(=O)n(CC)c2ccccc12)c1ccccc1` stands 0.51%. As to `COc1ccc(C2C(C(=O)c3ccc(C)o3)=C(O)C(=O)N2Cc2cccnc2)cc1OC` (stereo not drawn), the “hERG current change (%, negative = inhibition) at 1uM” value was determined as 13.6%. Under `O=C(O)c1cc(S(=O)(=O)Nc2ccc3c(c2)OCCO3)c(Cl)cc1Cl` stands 7.54%; under `Cc1ccc(C(=O)NCc2nnc(SCC(=O)NC(C)c3ccccc3)n2C)cc1` (stereo not drawn), 11.4%. Regarding `CCSc1nc2c(c(=O)[nH]1)C(c1cccnc1)C(C(=O)OC)=C(C)N2` (stereo not drawn), the “hERG current change (%, negative = inhibition) at 1uM” value was -0.491%. In the case of `COc1cc(NC(=S)N2CCCC2)cc(OC)c1` it was 15%. In the case of `CCCCn1c(CCC(=O)O)nc2cc(S(=O)(=O)N(CC)CC)ccc21` it was 15.4%; in that of `O=C(Nc1ccccc1NS(=O)(=O)c1ccc(F)cc1)C1CCCC1`, 3.67%. In the case of `CCNC(=S)NNc1nc(N2CCCCC2)nc(N2CCOCC2)n1` it was 5.66%; in that of `Cc1cccc(NC(=S)N(CCN2CCOCC2)Cc2cc3cc4c(cc3[nH]c2=O)OCCO4)c1`, 9.81%; in that of `Cc1cccc(-c2c3c(=O)n(C)c(=O)n(C)c3cn2-c2ccccc2O)c1`, 4.96%. For `Cc1ccc2c(c1)N(CC(=O)NC1CCCC1)C(=O)C(C)O2` (stereo not drawn), the “hERG current change (%, negative = inhibition) at 1uM” value is 13.7%.

Take `O=C(Oc1ccc(C(=S)N2CCOCC2)cc1Br)c1cc(Cl)ccc1Cl`: the “hERG current change (%, negative = inhibition) at 1uM” value was found to be 19.5%. Under `CC(C(=O)Nc1ccc2c(c1)OCCO2)N1CCN(C(=O)c2ccco2)CC1` (stereo not drawn) stands -1.52%. In the case of `Cc1ccc(C)c(NC2=NS(=O)(=O)c3ccccc32)c1` it was 3.55%. In the case of `Cc1cccc(-n2c(SCC(=O)N3CC(=O)Nc4ccccc43)nc3ccccc3c2=O)c1C`, the “hERG current change (%, negative = inhibition) at 1uM” value was 5.43%.

Turning to `O=C(CSc1n[nH]c(-c2ccccc2Cl)n1)NCc1cccc(C(=O)O)c1`, the “hERG current change (%, negative = inhibition) at 1uM” value is given as 10.2%. In the case of `Cc1cc(Cl)ccc1Oc1cccc(C(=O)/C(C#N)=C/N(C)C)c1` it was 6%. As to `CCCCNC(=O)CSc1nc2ccc(Nc3nc(N4CCOCC4)nc(N4CCOCC4)n3)cc2s1`, the “hERG current change (%, negative = inhibition) at 1uM” value was -3.05%. In the case of `N#Cc1c(N)n(Cc2ccccc2)c(=O)c2cc([N+](=O)[O-])ccc12` it was 12%; in that of `Cc1cccc(Cc2nnc(CCC(=O)N(C)Cc3ccncc3C)o2)c1`, 20.3%. Turning to `Cc1ccc(C(=O)N2CC(=O)Nc3ccc(F)cc3C2c2ccc(F)cc2)cc1` (stereo not drawn), the “hERG current change (%, negative = inhibition) at 1uM” value was 1.74%.

With `COc1ccc(C(=O)NC(C(=O)N2CCN(c3ccccc3O)CC2)C(C)C)cc1` (stereo not drawn), the “hERG current change (%, negative = inhibition) at 1uM” value is recorded as 7.47%. In the case of `CN(C(=O)c1ccc(Br)o1)C1CCS(=O)(=O)C1` (stereo not drawn) it was 16.7%; in that of `CCOC(=O)CNC(=O)CSc1nnc(CCc2nc3ccccc3[nH]2)n1C`, 13.3%. In the case of `CCN(CC)CCCNc1cc(C)nc2cc(-c3cccs3)nn12` it was 14.4%. With `CCN1CCN(C(=O)Cn2nc(C)c3sc4ccccc4c3c2=O)CC1`, the “hERG current change (%, negative = inhibition) at 1uM” value was 7.51%. In the case of `COC(=O)C1=C(C)NC(=S)NC1c1ccc(-c2cc(Cl)ccc2Cl)o1` (stereo not drawn) it was 0.473%; in that of `O=[N+]([O-])c1ccccc1/C=C/C=N/n1c(-c2cc(-c3ccccc3)n[nH]2)n[nH]c1=S`, 3.85%; in that of `C=CCSC(=C(C#N)C#N)c1cc2c([nH]1)CCCC2`, 7.76%. In the case of `O=C(CN(Cc1ccccc1)S(=O)(=O)c1ccc(F)cc1)NCc1ccccn1` it was 7.82%; in that of `Cc1ccc(C(=O)O)cc1NC(=O)C1CCCN1S(=O)(=O)c1cccc2nsnc12` (stereo not drawn), -1.27%. Under `CC1=C(C(=O)Nc2ccccc2)C(c2ccccn2)n2nc(CCCO)nc2N1` (stereo not drawn) stands 12.5%; under `O=C(NC1CCCCC1)C1CCN(S(=O)(=O)N2CCOCC2)CC1`, 16.2%. As to `CCCP(=O)(CC(=O)O)c1ccccc1` (stereo not drawn), the “hERG current change (%, negative = inhibition) at 1uM” value came to 8.21%. In the case of `CC(C)Cn1c(=O)c(C(=O)Nc2cnccn2)c(O)c2ccccc21` it was 5.42%; in that of `Cc1nn(CCCC(=O)Nc2sc3c(c2C#N)CCC3)c(C)c1[N+](=O)[O-]`, 9.76%; in that of `O=S(=O)(NCCSc1ccc(Cl)cc1)c1ccc(F)cc1`, 18.3%. Under `Cc1ccc(C(=O)NC(=S)Nc2ccc3[nH]c(=O)[nH]c3c2)cc1C` stands 12.5%. Under `Cc1c(-c2csc(N)n2)cnn1C` stands 6.03%; under `O=C(Nc1ccccc1N1CCOCC1)c1cccc([N+](=O)[O-])c1`, 2.37%. As for `N#Cc1c(NC(=O)COC(=O)c2nccnc2N)sc2c1CCCC2`, the “hERG current change (%, negative = inhibition) at 1uM” value was 13.3%. Under `CN1C(=O)/C(=C/C=C2\SCCN2C)OC1=S` stands 12.8%; under `O=C(O)CN1C(=O)/C(=C\c2ccccc2OCc2ccc(Cl)cc2Cl)SC1=S`, 11%. For `Cc1ccc(OCC(=O)Nc2ccc(CN3CCCCC3)cc2)c(C)c1`, the “hERG current change (%, negative = inhibition) at 1uM” value was -30.7%. Under `CCN(CC)S(=O)(=O)c1ccc(O)c(C(=O)OCC(=O)NC2CCCC2)c1` stands 10.3%; under `CCc1cc(=O)oc2cc(C)cc(OCC(=O)NCC3CCC(C(=O)O)CC3)c12` (stereo not drawn), 12.5%; under `CC(=O)c1ccc(N2CCN(C(=O)CCC(=O)Nc3ccc4nc(N5CCN(C)CC5)cc(C)c4c3)CC2)cc1`, 13.6%.

For `O=C(Nc1ccccc1C(=O)NCC1CCCO1)c1ccccc1` (stereo not drawn), the “hERG current change (%, negative = inhibition) at 1uM” value is -6.15%.

With `Br.C1=C(c2ccccc2)N2CCN=C2S1`, the “hERG current change (%, negative = inhibition) at 1uM” value is recorded as 6.51%. In the case of `COc1ccc2nc(/N=C/c3cccc(OC)c3O)sc2c1` it was 3.98%.

Consider `CC(C)C(C)(C#N)NC(=O)CSc1ncnc2sc(-c3ccccc3)cc12` (stereo not drawn), for which the “hERG current change (%, negative = inhibition) at 1uM” value was found to be 13.7%.

Turning to `CCOC(=O)CCS(=O)(=O)c1nc(-c2ccccc2)cc(C(F)(F)F)n1`, the “hERG current change (%, negative = inhibition) at 1uM” value is 14.3%. Under `O=C(O)C1CCCCC1C(=O)Nc1ccc(S(=O)(=O)N2CCCCC2)cc1` (stereo not drawn) stands 12.7%. In the case of `COC(C/C=C/[C@@H](O)COCc1ccccc1)OC` it was 10.7%; in that of `O=C(CCCCCNC(=O)N1CCn2c1nc1ccccc12)NCCc1ccccc1`, 17.2%. In the case of `COc1cc(C(=O)NNC(=O)c2ccc(NC(=O)C(C)(C)C)cc2)cc(OC)c1OC` it was 11.9%; in that of `CCOC(=O)c1c(/N=C/c2c(O)n(-c3ccc(F)cc3)c(=S)[nH]c2=O)sc2c1CCCC2`, 9.24%. For the molecule `COc1ccc(C2=NN(c3nc4ccccc4s3)C(=O)/C2=C\N(C)C)cc1`, the “hERG current change (%, negative = inhibition) at 1uM” value was found to be 10.4%.

Consider `Cc1ccc(-c2nnn(CC(=O)N(Cc3cccs3)C(C(=O)NC3CCCCC3)c3ccco3)n2)o1` (stereo not drawn), for which the “hERG current change (%, negative = inhibition) at 1uM” value was -1.64%. Under `CCc1noc(C)c1C(=O)NNC(=O)c1ccccc1` stands 6.68%; under `NC(=O)c1nsc(C(=O)N(c2ccc3c(c2)OCCO3)C(C(=O)NCC2CCCO2)c2ccc(F)cc2)c1N` (stereo not drawn), 14.1%. Under `Cc1ccc(N2C(=O)C3C(c4ccccc4)N4CCCN4C3(C)C2=O)cc1` (stereo not drawn) stands 13.7%.

Take `CCOC(=O)C1CCN(C(=O)c2ccc(OC3CCN(C(=O)CCOC)CC3)cc2)CC1`: the “hERG current change (%, negative = inhibition) at 1uM” value is listed as 15%. In the case of `Cn1cccc1CC(=O)N/N=C\c1ccccc1` it was 20.6%; in that of `O=S(=O)(c1cccc2nsnc12)N1CCN(Cc2ccccc2)CC1`, 17.2%. In the case of `CC(C)C(NC(=O)c1c(F)cccc1F)C(=O)NCC(c1ccccc1)N(C)C` (stereo not drawn) it was 7.89%; in that of `COC(=O)c1ccccc1NCC(=O)c1ccc(OC)cc1`, 14%; in that of `N#C/C(=C/c1ccc([N+](=O)[O-])cc1)C(=O)Nc1ccccc1O`, 10.4%.

As to `Cc1nc(CNC(=O)CC2C(=O)NCCN2Cc2cccc(Oc3ccccc3)c2)cs1` (stereo not drawn), the “hERG current change (%, negative = inhibition) at 1uM” value came out at 14%. Under `O=C(CCn1cccc(C(F)(F)F)c1=O)Nc1cccc(C(F)(F)F)c1` stands 1.72%.

As for `N/C(Cc1ccc(Cl)c(Cl)c1)=N\OC(=O)c1cccs1`, the “hERG current change (%, negative = inhibition) at 1uM” value is reported as 13.4%. Under `c1ccc(-c2noc(-c3cccs3)n2)nc1` stands 7.74%; under `COc1cc([N+](=O)[O-])ccc1NC(=O)Nc1cccnc1`, 3.99%. In the case of `COC(=O)Nc1ccc(S(=O)(=O)N(CCO)CC(F)(F)C(F)F)cc1`, the “hERG current change (%, negative = inhibition) at 1uM” value worked out at 18.7%.
